What all share (experiment): Primary Screen for Target Class Profiling of Small Molecule Inhibitors of Methyltransferases
The target of experiment [1] is Glycine N-methyltransferase (Homo sapiens) (UniProt Q14749). As to conditions: purified enzyme, MTase-Glo SAH luminescence; measured here: GNMT inhibition; at 40 µM; stronger effect = lower value. A digest of the protocol:
(§1)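 Each enzyme was reacted with SAM and its substrate, with compounds tested once at 40 uM; SAH formed was read by MTase-Glo luminescence.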

Experiment [2] has as its target Guanidinoacetate N-methyltransferase (Homo sapiens) (UniProt Q14353). The conditions noted are these: purified enzyme, MTase-Glo SAH luminescence; measured here: GAMT inhibition; at 40 µM; stronger effect = lower value. A digest of the protocol:
as §1

The target in experiment [3] is Histamine N-methyltransferase (Homo sapiens) (UniProt P50135). The conditions noted are these: purified enzyme, MTase-Glo SAH luminescence; measured here: HNMT inhibition; at 40 µM; stronger effect = lower value. In a few lines:
as §1

Experiment [4] deals with Nicotinamide N-methyltransferase (Homo sapiens) (UniProt P40261). As to conditions: purified enzyme, MTase-Glo SAH luminescence; measured here: NNMT inhibition; at 40 µM; stronger effect = lower value. In a few lines:
as §1

Experiment [5] deals with Phenylethanolamine N-methyltransferase (Homo sapiens) (UniProt P11086). The conditions noted are these: purified enzyme, MTase-Glo SAH luminescence; measured here: PNMT inhibition; at 40 µM; stronger effect = lower value. A digest of the protocol: as §1

The structures appear in SMILES notation. Values joined by “and” are separate entries in the source; they are usually repeats but may differ in a detail not shown here. Equal entries are not always repeated. This is one part of the list. These are further read-outs of the screen, such as a control signal, another cell line or another target. No call is given for them.

We go through 30 compounds from PubChem BioAssay AID1745853 (National Center for Advancing Translational Sciences (NCATS), 2022).
% is scaled to controls: 0 for no effect and ±100 for the full control effect.

Consider `CCOC(=O)c1cc2n(n1)CC(C)(C(=O)NCCC(C)C)N(c1cccc(OC)c1)C2=O` (stereo not given), for which the activity change, negative = inhibition in experiment [1] is -1.17%; in experiment [2], 0.41%; in experiment [3], 0.247%; in experiment [4] it was 8.12%; in experiment [5] it was -0.353%.

Consider `O=S(=O)(NCCc1ccc(Cl)cc1)c1ccc2[nH]c3c(c2c1)CCCC3`, for which the activity change, negative = inhibition in experiment [1] is -3.95%; in experiment [2] it was 3.54%; in experiment [3], -5.74%; in experiment [4] it was -5.13%; in experiment [5] it was 0.136%.

Turning to `CCCc1nc2c3ccccc3n(CC(=O)N3CCN(c4ccccc4F)CC3)c(=O)n2n1`, the activity change, negative = inhibition in experiment [1] was 16.3%; in experiment [2] it was 0%; in experiment [3] it was 9.23%; in experiment [4] it was 2.88%; in experiment [5] it was 4.81%.

Consider `Cn1cc(S(C)=O)c(=O)c2ccc(F)cc21` (stereo not given), for which the activity change, negative = inhibition in experiment [1] was -1.78%; in experiment [2], 1.69%; in experiment [3] it was -0.023%; in experiment [4] it was -15.7%; in experiment [5], -8.41%.

For `COCCCNC(=O)C1(C)Cn2nc(-c3ccccc3)cc2C(=O)N1c1ccc2c(c1)OCO2` (stereo not given), the activity change, negative = inhibition in experiment [1] is 1.24%; in experiment [2], 0%; in experiment [3], 2.2%; in experiment [4] it was 3.21%; in experiment [5], -2.71%.

Consider `O=C(O)c1ccccc1C(=O)Nc1ccc(-c2ccccc2)cc1`, for which the activity change, negative = inhibition in experiment [1] was -1.93%; in experiment [2], -1.09%; in experiment [3], 5.55%; in experiment [4], -11.2%; in experiment [5], 3.11%.

For the compound `COCCCNC(=O)C1(C)Cn2nc(-c3ccccc3)cc2C(=O)N1c1cc(C)cc(C)c1` (stereo not given), the activity change, negative = inhibition in experiment [1] is -4.71%; in experiment [2] it was 0.569%; in experiment [3], -4.42%; in experiment [4], -4.64%; in experiment [5], -7.71%.

As to `CCN1C(=O)c2cc(C(=O)NCc3ccccc3C)nn2CC1(C)C(=O)NC1CCCC1` (stereo not given), the activity change, negative = inhibition came out at 7.44% in experiment [1]; 0.064% in experiment [2]; 4.72% in experiment [3]; 8.18% in experiment [4]; 5.81% in experiment [5].

Turning to `CN1C(=O)c2ccccc2NC(=O)[C@]12O[C@@H]2c1cccc(O)c1`, the activity change, negative = inhibition in experiment [1] was 1.74%; in experiment [2], -0.797%; in experiment [3] it was 9.1%; in experiment [4] it was -11.1%; in experiment [5], -3.38%.

With `CC(=O)N1CCN(CCOc2ccc(C3CCN(C4=Nn5c(nnc5C(F)(F)F)CC4)CC3)cc2)CC1`, the activity change, negative = inhibition in experiment [1] was -10.3%; in experiment [2], 6.79%; in experiment [3] it was 3.53%; in experiment [4], -15.8%; in experiment [5], -1.63%.

Turning to `CCc1cc(=O)n(CC(=O)Nc2ccccc2OC)c(N2CCOCC2)n1`, the activity change, negative = inhibition was -2.39% in experiment [1]; -3.13% in experiment [2]; -3.92% in experiment [3]; -3.09% in experiment [4]; -2.47% in experiment [5].

With `O=C1N=C(N2CCOCC2)CN1c1ccc(Cl)cc1`, the activity change, negative = inhibition in experiment [1] is -6.66%; in experiment [2], -10.8%; in experiment [3], 0.762%; in experiment [4] it was -16.9%; in experiment [5], -6.15%.

On to `CC(C)OCCCn1c(=O)c2ccccc2n2c(CCC(=O)Nc3cccc(Cl)c3)nnc12`, for which the activity change, negative = inhibition in experiment [1] is -11.2%; in experiment [2], 0%; in experiment [3], 3.33%; in experiment [4] it was -0.628%; in experiment [5], -0.352%.

Regarding `O=C(CSc1nnc2n(CCc3ccccc3)c(=O)c3ccccc3n12)Nc1ccccc1F`, the activity change, negative = inhibition stood at 0.927% in experiment [1]; 0% in experiment [2]; 8.57% in experiment [3]; 0.708% in experiment [4]; 4.07% in experiment [5].

As to `CC(C)N1C[C@@H](C(=O)O)C[C@H](C(=O)Nc2ccc(F)cc2)C1`, the activity change, negative = inhibition is -1.54% in experiment [1]; -0.141% in experiment [2]; 0.241% in experiment [3]; -5.26% in experiment [4]; -2.32% in experiment [5].

With `O=C(NCc1ccccc1)N1CCn2cccc2C1Cc1ccccc1` (stereo not given), the activity change, negative = inhibition in experiment [1] was -5.25%; in experiment [2], -2.52%; in experiment [3], -7.26%; in experiment [4], -6.96%; in experiment [5], -8.38%.

Consider `CCCn1c(=O)c2ccc(C(=O)NC(C)CC)cc2n2c(=O)n(CC(=O)c3ccc(C)cc3C)nc12` (stereo not given), for which the activity change, negative = inhibition was 4.21% in experiment [1]; 4.56% in experiment [2]; 6.53% in experiment [3]; -0.329% in experiment [4]; -0.008% in experiment [5].

On to `CCN(CCCNC(=O)CCCc1nnc2n3nc(C)nc3c3ccccc3n12)c1cccc(C)c1`, for which the activity change, negative = inhibition in experiment [1] is -10%; in experiment [2], 0.669%; in experiment [3], -6.71%; in experiment [4], 5.96%; in experiment [5], -5.64%.

Consider `CCCN1C(=O)c2c(C(=O)NCc3cccc(C)c3)ncn2CC1(C)C(=O)NC1CCCC1` (stereo not given), for which the activity change, negative = inhibition in experiment [1] was found to be 1.62%; in experiment [2] it was 0%; in experiment [3], 3.24%; in experiment [4] it was 4.8%; in experiment [5], 4.21%.

As to `OC[C@H]1O[C@@H](OCc2ccccc2)[C@H](O[C@@H]2OC[C@@H](O)[C@H](O)[C@H]2O)[C@@H](O)[C@@H]1O`, the activity change, negative = inhibition in experiment [1] was 6.81%; in experiment [2] it was 5.92%; in experiment [3], 12%; in experiment [4], -6.54%; in experiment [5] it was 5.36%.

With `CCc1cccc2c3c([nH]c12)C(CC)(CC(=O)O)OCC3` (stereo not given), the activity change, negative = inhibition in experiment [1] is -9.61%; in experiment [2], -9.01% and 0.073%; in experiment [3] it was -1.93%; in experiment [4] it was -19.8% and -5.63%; in experiment [5], -3.07% and 3.84%.

Consider `CCCn1c(=O)c2cc(Cl)ccc2n2c(SCc3cccc(C)c3)nnc12`, for which the activity change, negative = inhibition in experiment [1] is -14.9%; in experiment [2], -0.526%; in experiment [3] it was -2.58%; in experiment [4], -13.8%; in experiment [5] it was -1.82%.

For the compound `CCN1C(=O)c2cc(C(=O)Nc3ccc(C)cc3)nn2CC1(C)C(=O)NC1CCCC1` (stereo not given), the activity change, negative = inhibition in experiment [1] was -0.543%; in experiment [2] it was 3.17%; in experiment [3] it was -7.35%; in experiment [4] it was -2.38%; in experiment [5], 2.06%.

`CC(C)N1CCN(C(=O)CC2=C3CCCCC3NC2=O)CC1` (stereo not given): the activity change, negative = inhibition in experiment [1] was -2.12%; in experiment [2] it was 3.4%; in experiment [3], 1.03%; in experiment [4], 2.08%; in experiment [5] it was 16.5%.

Take `COc1c(OC2OC(CO)C(O)C(O)C2O)ccc(O)c1C(=O)OCc1ccccc1O[C@@H]1O[C@H](CO)[C@@H](O)[C@H](O)[C@H]1O` (stereo not given in full): the activity change, negative = inhibition is 1.88% in experiment [1]; -3.79% in experiment [2]; 2.22% in experiment [3]; -14.7% in experiment [4]; 1.11% in experiment [5].

With `Cc1cc2c(cc3n2CC(C)(C(=O)NC2CCCCCCC2)N(Cc2ccccc2F)C3=O)o1` (stereo not given), the activity change, negative = inhibition in experiment [1] is -1.9%; in experiment [2], 2.07%; in experiment [3] it was 1.91%; in experiment [4], -0.439%; in experiment [5] it was -0.745%.

For the compound `CCCN1C(=O)c2cc(C(=O)NCc3cccnc3)nn2CC1(C)C(=O)NC1CCCC1` (stereo not given), the activity change, negative = inhibition was found to be 7.2% in experiment [1]; 0.582% in experiment [2]; 3.23% in experiment [3]; 4.89% in experiment [4]; 5.03% in experiment [5].

Take `CC(C)OCCCNC(=O)Cn1ccc2cc(S(=O)(=O)N3CCCCC3)ccc21`: the activity change, negative = inhibition is 4.75% in experiment [1]; 0% in experiment [2]; 3.52% in experiment [3]; 4.04% in experiment [4]; 1.46% in experiment [5].

Regarding `COc1ccc(CNC(=O)CSc2nnc3n(CCc4ccccc4)c(=O)c4ccccc4n23)cc1`, the activity change, negative = inhibition in experiment [1] is -1.65%; in experiment [2] it was 5.03%; in experiment [3], 2.31%; in experiment [4] it was -4.87%; in experiment [5], -2%.

Take `CCCn1c(=O)c2ccccc2n2c(=O)n(CC(=O)Nc3ccc(Cl)cc3)nc12`: the activity change, negative = inhibition amounted to 6.08% in experiment [1]; 0.054% in experiment [2]; 9.73% in experiment [3]; 0.67% in experiment [4]; 3.79% in experiment [5].
